Article PMC4336329 (PLoS ONE, 2015)
The whole screen tested about 310,000 compounds, of which about 2,200 (0.71%) showed an effect of 50% or more. The effect is printed as a negative number. This is one part of the list.

molecular target: human ether-à-go-go-related gene (hERG) potassium channel (human, UniProt Q12809); assay: primary screen, population patch clamp on CHO cells stably expressing hERG
Sequence (Q12809 whole entry, looked up): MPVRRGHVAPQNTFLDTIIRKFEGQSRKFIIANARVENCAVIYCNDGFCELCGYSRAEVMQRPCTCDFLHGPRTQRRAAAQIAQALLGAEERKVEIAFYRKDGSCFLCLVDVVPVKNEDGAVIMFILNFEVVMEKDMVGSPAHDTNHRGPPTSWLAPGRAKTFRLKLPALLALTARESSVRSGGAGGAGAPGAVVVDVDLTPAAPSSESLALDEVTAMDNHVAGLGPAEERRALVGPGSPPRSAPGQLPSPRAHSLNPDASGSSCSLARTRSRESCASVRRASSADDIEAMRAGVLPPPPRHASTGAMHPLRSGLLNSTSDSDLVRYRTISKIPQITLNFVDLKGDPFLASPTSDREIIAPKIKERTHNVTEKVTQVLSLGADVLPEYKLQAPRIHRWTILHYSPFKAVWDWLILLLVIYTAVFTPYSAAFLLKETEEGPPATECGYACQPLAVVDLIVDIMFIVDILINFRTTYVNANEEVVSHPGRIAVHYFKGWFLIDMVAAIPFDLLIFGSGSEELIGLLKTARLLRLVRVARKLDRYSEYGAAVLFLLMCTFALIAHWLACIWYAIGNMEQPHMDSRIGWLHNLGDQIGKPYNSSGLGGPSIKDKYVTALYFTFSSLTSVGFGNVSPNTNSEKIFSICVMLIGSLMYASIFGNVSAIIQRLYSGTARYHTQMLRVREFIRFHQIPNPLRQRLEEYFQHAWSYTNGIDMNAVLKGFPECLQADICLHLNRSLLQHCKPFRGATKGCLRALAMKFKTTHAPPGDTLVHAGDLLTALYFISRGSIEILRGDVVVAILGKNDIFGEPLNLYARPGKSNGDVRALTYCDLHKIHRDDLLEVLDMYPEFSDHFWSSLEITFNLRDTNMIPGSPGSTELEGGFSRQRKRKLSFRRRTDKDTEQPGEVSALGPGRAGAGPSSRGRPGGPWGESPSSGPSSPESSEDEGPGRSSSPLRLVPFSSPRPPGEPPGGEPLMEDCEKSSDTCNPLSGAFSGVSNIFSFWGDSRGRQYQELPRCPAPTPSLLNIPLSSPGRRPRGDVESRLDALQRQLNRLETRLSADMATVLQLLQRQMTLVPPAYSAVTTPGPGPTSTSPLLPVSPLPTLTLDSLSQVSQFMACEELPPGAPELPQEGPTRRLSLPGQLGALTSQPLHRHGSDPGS

Compound	hERG current change (%, negative = inhibition) at 1uM [%]
OC(CN1CCCCC1)c1c[nH]c2ccccc12 (stereo not drawn)	7.27
COCCNC(=O)c1cccc(OC2CCN(Cc3ccc(OC(F)F)cc3)CC2)c1	-75.4
C=CCNc1sc(C(=O)C2CC2)c(N)c1C#N	4.1
Cc1nc(CSc2ccc(Cl)cc2)cc(N2CC(C)OC(C)C2)n1 (stereo not drawn)	6.49
CSc1ccccc1OCc1cc(C(=O)NC2CCc3ccccc32)no1 (stereo not drawn)	17.2
O=C(Nc1ccccc1Cl)O/N=C/c1ccncc1	6.9
O=C(OCc1cccc(C(F)(F)F)c1)c1ccc[nH]c1=O	13.3
CCOC(=O)NC(=O)/C(C=Nc1ccc(Cl)c(Cl)c1Cl)=C(\C)O	8.08
N#Cc1ccc(-c2csc(-c3ccno3)n2)cc1	9.79
CCOC(=O)C1CCN(C(c2cc3ccc(C)c(C)c3[nH]c2=O)c2nnnn2C2CCCCC2)CC1 (stereo not drawn)	7.02
Cn1ccnc1C(O)(c1ccccc1)c1ccccc1	0.199
Cc1nc(N)sc1C(=O)N/N=C/c1ccccc1[N+](=O)[O-]	16.1
CCCn1c(N)c(N(CCOC)C(=O)COC(=O)CSc2cc(C)c3ccccc3n2)c(=O)[nH]c1=O	11.4
CCOC(=O)c1cc2c(=O)n3ccccc3nc2n(CCOC)c1=NC(=O)c1ccncc1	-1.41
CCOC(=O)c1ccc(NC(=O)COc2ccccc2CNCCc2ccccc2)cc1.Cl	-25.5
Cc1ccc(Oc2cc(NN3CCCCC3)c([N+](=O)[O-])cc2[N+](=O)[O-])c(Cl)c1	8.84
Cc1ccc(S(=O)(=O)N2CCCC2CNC(=O)C(=O)NCc2cccs2)cc1 (stereo not drawn)	15.2
COc1ccc(/C=N/NC(=S)Nc2cccc(C(=O)O)c2)cc1	3.2
Cc1ccc(S(=O)(=O)N2CCOCC2)cc1NC(=O)COc1ncnc2ccccc12	19.1
COc1cc(NC(=O)c2ccc(NS(=O)(=O)c3c(C)noc3C)cc2)cc(OC)c1	5.99
CCOC(=O)C1=C(CN2CCN(c3ccc(F)cc3)CC2)NC(=O)NC1c1cccs1 (stereo not drawn)	-4.28
O=C(c1cccc(F)c1)N1CCN(c2cc(N3CCCCC3)c(F)cc2[N+](=O)[O-])CC1	5.29
O=C(c1ccc2c(=O)n3c(nc2c1)CCCCC3)N1CCCCC1	18.1

Compound	hERG current change (%, negative = inhibition) at 1uM [%]
CC(Oc1ccccc1)C(=O)N1CCN(c2ccc(N3CCCCCC3)nn2)CC1 (stereo not drawn)	-7.57
N/C(=N\OC(=O)c1ccc([N+](=O)[O-])cc1)c1ccc(Br)cc1	9.43
CCOc1ccccc1NC(=O)Cn1c(=O)n(CCC(=O)NC2CCCC2)c(=O)c2ccccc21	10
CCCCCOCC(O)CCC(=O)NN (stereo not drawn)	21.2
Cc1ccccc1C(C(=O)NC1CCCC1)N(C(=O)Cc1cccs1)c1ccc2c(c1)OCCO2 (stereo not drawn)	7.29
CCOc1ccc(N2CC(C(=O)N3CCN(C(=O)c4ccco4)CC3)CC2=O)cc1 (stereo not drawn)	-41.3
COc1ccc(CC(=O)Nc2ccc3c(c2)CCC3)cc1S(=O)(=O)N1CCOCC1	4.84
C[C@H](NC(=O)[C@@H]1Cc2ccccc2CN1C(=O)OC(C)(C)C)C(=O)NCC1CCCO1 (stereo partly drawn)	22
COc1ccc(NC(=O)C(C)(C)Oc2ccc(Cl)cc2)cn1	-5.55
CCCOc1ccc(N2C(=O)CC(NCc3cccs3)C2=O)cc1 (stereo not drawn)	0.643
CCNC(=O)Cn1cnc2c1c(=O)n(C)c(=O)n2C	14.7
CC(C)(C)c1cc(NC(=O)c2ccco2)no1	-2.49
Cc1ccc2c(c1)C1CC(C)(O2)N(c2cccc(C(=O)NCc3ccccn3)c2)C(=O)N1 (stereo not drawn)	16.8
COc1ccc(NC(=S)Nc2cccc([N+](=O)[O-])c2)cc1	11.7
CCOC(=O)c1cnc(SCC(=O)c2ccc(C)cc2)nc1N	15.5
O=C(COC(=O)c1cc(S(=O)(=O)N2CCOCC2)ccc1Cl)NCCc1ccccc1	-4.44
CC(O)CN1CCN(C(=O)CN2C(=O)NC(c3ccccc3)(c3ccccc3)C2=O)CC1 (stereo not drawn)	8.29
CCOC(=O)C1=C(C)NC(=O)NC1c1cccnc1 (stereo not drawn)	-0.592
COC(=O)c1ccc(-c2ncc[nH]2)cc1	10
COc1ccc(C(=O)CN2CCN(CCN3C(=O)c4cccc5cccc(c45)C3=O)CC2)cc1	-2.64
COc1ccc(OC)c(NC(=O)NCc2cccnc2)c1	4.53
COC(=O)c1sccc1NC(=O)/C=C/c1ccc(Cl)cc1Cl	12.3
